Experimental data taken from the supplement of paper PMC7125110.
Variants at the background level are over-represented here.

B1: glmS ribozyme (parent)
chain: AUAAAAGCGCCAGAACUACAGAAAUGUAGUUGACGAGGAGGAGGUUUAUCGAAUUUUCGGCGGAUGCCUCCAAA

How the values were obtained:
Conditions in all cases: with glucosamine-6-phosphate
glucosamine-6-phosphate [1] = variants of: B1; assay: self-cleavage kobs at 40 uM GlcN6P; higher = faster cleavage; RNA array
Summary of the method: (§1)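 Using a hybridised Cy3 probe at 37 °C, barcoded ribozyme variants transcribed in situ by E. coli RNA polymerase on sequenced MiSeq chips were monitored across tiles imaged over ~14 h. The flow contained glucosamine-6-phosphate from 40 μM to 10 mM in HEPES/KCl/Mg(OAc)2 buffer. Signals were normalised to baseline and to non-cleaving reference variants before per-tile medians were fit to one- or two-exponential decays to yield kobs. Weighted Michaelis–Menten fits across concentrations gave kcat and KM.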

glucosamine-6-phosphate [2] = variants of: B1; assay: self-cleavage kobs at 160 uM GlcN6P; higher = faster cleavage; RNA array
Summary of the method: as §1

glucosamine-6-phosphate [3] = variants of: B1; assay: kcat; higher = faster cleavage; RNA array
Summary of the method: as §1

glucosamine-6-phosphate [4] = variants of: B1; assay: self-cleavage kobs at 10000 uM GlcN6P; higher = faster cleavage; RNA array
Summary of the method: as §1

glucosamine-6-phosphate [5] = variants of: B1; assay: self-cleavage kobs at 2500 uM GlcN6P; higher = faster cleavage; RNA array
Summary of the method: as §1

glucosamine-6-phosphate [6] = variants of: B1; assay: self-cleavage kobs at 640 uM GlcN6P; higher = faster cleavage; RNA array
Summary of the method: as §1

| Variant | self-cleavage kobs at 40 uM GlcN6P (glucosamine-6-phosphate [1]) | self-cleavage kobs at 160 uM GlcN6P (glucosamine-6-phosphate [2]) | kcat (glucosamine-6-phosphate [3]) | self-cleavage kobs at 10000 uM GlcN6P (glucosamine-6-phosphate [4]) | self-cleavage kobs at 2500 uM GlcN6P (glucosamine-6-phosphate [5]) | self-cleavage kobs at 640 uM GlcN6P (glucosamine-6-phosphate [6]) |
| --- | --- | --- | --- | --- | --- | --- |
| A6C U56A | < 1e-05 s⁻¹ | < 1e-05 s⁻¹ |  |  |  |  |
| G38C C67G |  |  | < 1e-05 s⁻¹ |  |  |  |
| A6G U31C G41U A52U | < 1e-05 s⁻¹ |  |  |  |  |  |
| A6G C16G G41C A42C C68A | < 1e-05 s⁻¹ |  |  | < 1e-05 s⁻¹ |  |  |
| A6C C10A U49A G59C | < 1e-05 s⁻¹ |  |  |  |  |  |
| A6C G44U G51A | < 1e-05 s⁻¹ |  |  | < 1e-05 s⁻¹ |  |  |
| G35U G37U | < 1e-05 s⁻¹ |  | < 1e-05 s⁻¹ | < 1e-05 s⁻¹ | < 1e-05 s⁻¹ |  |
| A6C G43A | < 1e-05 s⁻¹ | < 1e-05 s⁻¹ |  | < 1e-05 s⁻¹ |  | < 1e-05 s⁻¹ |
| A14C G37U |  |  | < 1e-05 s⁻¹ |  |  |  |
| C10U C68A | < 1e-05 s⁻¹ |  | < 1e-05 s⁻¹ |  |  |  |
| A6C G38U | < 1e-05 s⁻¹ | < 1e-05 s⁻¹ |  | < 1e-05 s⁻¹ |  | < 1e-05 s⁻¹ |
| A6C G35U | < 1e-05 s⁻¹ | < 1e-05 s⁻¹ |  | < 1e-05 s⁻¹ | < 1e-05 s⁻¹ |  |
| A6C G35A | < 1e-05 s⁻¹ | < 1e-05 s⁻¹ |  | < 1e-05 s⁻¹ | < 1e-05 s⁻¹ | < 1e-05 s⁻¹ |
| G29U A52C |  |  | < 1e-05 s⁻¹ |  |  |  |
| G32C G40U |  |  | < 1e-05 s⁻¹ |  |  |  |
| A36U C71A |  |  | < 1e-05 s⁻¹ |  |  |  |
| G62C C70G |  |  | < 1e-05 s⁻¹ |  |  |  |
| U57C G66U |  |  | < 1e-05 s⁻¹ |  |  |  |
| A6C A39C |  | < 1e-05 s⁻¹ | < 1e-05 s⁻¹ |  |  |  |
| G37U U56G | < 1e-05 s⁻¹ |  | < 1e-05 s⁻¹ |  |  |  |
| G62A C71U | < 1e-05 s⁻¹ |  | < 1e-05 s⁻¹ | < 1e-05 s⁻¹ |  |  |
| A64C C67U | < 1e-05 s⁻¹ |  | < 1e-05 s⁻¹ |  |  |  |
| A36C C68U |  |  | < 1e-05 s⁻¹ |  |  |  |
| C61A C71A |  | < 1e-05 s⁻¹ | < 1e-05 s⁻¹ | < 1e-05 s⁻¹ |  |  |
| G38A A64U |  |  | < 1e-05 s⁻¹ | < 1e-05 s⁻¹ |  |  |
| G35U U54G U56A | < 1e-05 s⁻¹ |  | < 1e-05 s⁻¹ |  |  |  |
| G37U U49A |  |  | < 1e-05 s⁻¹ | < 1e-05 s⁻¹ |  | < 1e-05 s⁻¹ |
| A6U A15G U30C | < 1e-05 s⁻¹ |  |  |  |  |  |
| A6G C10U | < 1e-05 s⁻¹ |  |  | < 1e-05 s⁻¹ |  | < 1e-05 s⁻¹ |
